The values that follow come from PubChem BioAssay (NCATS).

The structures appear in SMILES notation. Some of the results follow. Shown are side measurements of this screen, not its main read-out; they come without a call. Potencies come from curve fits of mixed quality, noted in brackets.
Tags describe the fitted curve by direction and shape.

The nature of the experiment: qHTS drug screen for cell cycle checkpoint inhibitors in PARPi-resistant BRCA-mutant ovarian cancer cell lines. (AID 1963452). The note with it: PEO1/OlaR viability, CellTiter-Glo luminescence, 96 h; measured here: PEO4 viability. The method in brief:
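PEO1, PEO4 and PEO1/OlaR ovarian cancer cells, 600 per well, exposed 96 h at 37C to a dilution series. Viability read by CellTiter-Glo luminescence, normalized to DMSO and empty wells; activity summarized as Z-AUC.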
(In general: Quantitative high-throughput screening tests each substance at several concentrations.)
On to `CC#CC(=O)N1CC[C@@H](n2c(=O)n(-c3ccc(Oc4ccccc4)cc3)c3c(N)ncnc32)C1`, for which the AC50 – broadly, the concentration at which the activity in the assay is half-maximal – was 24.5 µM [falling, single point].
Regarding `O=C(c1c(F)ccc(NS(=O)(=O)N2CC[C@@H](F)C2)c1F)c1c[nH]c2ncc(-c3cnc(C4CC4)nc3)cc12`, the AC50 was 17.4 µM [falling, single point].
The same measure for `CNC(=O)c1ccccc1Nc1nc(Nc2ccc3c(c2OC)CCC[C@H](N2CCN(CCO)CC2)C3)ncc1Cl`: 1.95 µM [falling, full curve].
The figure for `Cc1cc(-c2nc3cc(F)ccc3s2)ccc1NC(=O)[C@@H](N)CCCCN` is 6.92 µM [falling, partial curve].
The figure for `Cc1ccc(-c2ccc3ncc4c(c3n2)n(C2CCN(C(=O)[C@H](C)O)CC2)c(=O)n4C)cn1` is 0.0776 µM [falling, full curve]; for `Cc1ncsc1-c1ccc([C@H](C)NC(=O)[C@@H]2C[C@@H](O)CN2C(=O)[C@@H](NC(=O)COCCCOCCNC(=O)C[C@@H]2N=C(c3ccc(Cl)cc3)c3c(sc(C)c3C)-n3c(C)nnc32)C(C)(C)C)cc1` it is 0.0436 µM [falling, full curve].
For `CC[C@@H](C)Nc1cc(C(=O)NC2CC3CCC(C2)N3c2ccc(C(=O)C3CC3)cn2)c(C)cc1C(N)=O` (stereo partly drawn), the AC50 was 1.95 µM [falling, partial curve].
The same measure for `Cc1ncc(NC(=O)c2cccc(C(F)(F)F)c2)cc1-c1cnc(OC2CCOCC2)c(N2CCOCC2)c1`: 12.3 µM [falling, partial curve].
